Hit rate of the full screen: of about 150,000 compounds, about 540 (0.36%) showed an effect of 50% or more. The list shows a part of the results.
Tested on: Plasmodium falciparum
Assay: Primary screen in NF54 nanoGlo assay, in single point, at 2uM, 72h; a lower Z score goes with more inhibition
Assay type: functional, Erythrocyte
Conditions: timepoint 72 hour

Which “% Inhibition” value does the source give for `C[C@@H](C(=O)N1CCOc2ccc(CN3CCCCC3)cc2C1)c1ccccc1` here?
Its value is -11%.

And the Z score?
The Z score was 1.22.

`Cc1ncsc1-c1nc(-c2nnc(-c3ccccc3)o2)no1` was tested. Which “% Inhibition” value did it give?
The value was 23%.

What about the Z score of the same compound?
Its Z score is -2.57.

`O=C(NCCc1ccccc1)[C@H]1C[C@@H](C(=O)Nc2ccc(F)cc2)CN(Cc2ccncc2)C1` was tested. Which “% Inhibition” value did it give?
Its value is 2%.

What about the Z score of the same compound?
Its Z score is -0.26.

Which results are given for `C[C@H]1CC(C)(C)N(C)c2ccc(/C=C/c3c(C(=O)O)cnc4ccnn34)cc21`?
% Inhibition: 37%; Z score: -4.2

What does the source list for `CC1(C)[C@@H](c2cccc(F)c2)CCN1Cc1ncccc1C(=O)O`?
% Inhibition: -11%; Z score: 1.77

Which “% Inhibition” value does the source give for `Cc1nn(C)c(Cl)c1-c1nc2c([nH]1)c(C)nn2C1CCCCC1` here?
The value was 1%.

And the Z score?
Its Z score is -0.09.

Which “% Inhibition” value does the source give for `CCN(C(C)c1ccc(F)cc1)S(=O)(=O)C(C)COC` (stereo unspecified) here?
The value was -6%.

And the Z score?
The Z score was 0.79.

`CC(C)NCc1ccccc1-c1cccc2ncccc12` was tested. Which “% Inhibition” value did it give?
Its value is -6%.

What about the Z score of the same compound?
The Z score was 0.59.

Which results are given for `CCOC(=O)c1cc(CC)nc2c1c(C1CC1)nn2-c1ccc(OC)cc1`?
% Inhibition: 3%; Z score: -0.54

What does the source list for `CC(C)c1nc(C(=O)NCCc2ccc(F)cc2)c[nH]1`?
% Inhibition: -5%; Z score: 0.55

`Cc1ncc(NC(=O)c2ccc3nncn3c2)cn1` was tested. Which “% Inhibition” value did it give?
The value was -4%.

What about the Z score of the same compound?
Its Z score is 0.53.

Which “% Inhibition” value does the source give for `Cn1ccnc1-c1ccccc1C(=O)N1CCN(Cc2ccccc2)CC1` here?
Its value is -18%.

What about the Z score of the same compound?
Its Z score is 2.68.

For `C=CCNC(=O)c1ccc(N[C@H]2CC(=O)N(C(C)(C)C)C2)nc1`, which “% Inhibition” value is on record?
The value was 30%.

What about the Z score of the same compound?
Its Z score is -3.4.

Which “% Inhibition” value does the source give for `C[C@@]1(C(=O)Nc2cccc(OCCn3cncn3)c2)COc2ccccc2O1` here?
Its value is -13%.

What about the Z score of the same compound?
Its Z score is 1.61.

Which results are given for `CCN(C[C@H]1COc2ccccc2O1)C(=O)Cc1cccc(N)c1`?
% Inhibition: -5%; Z score: 0.57

What does the source list for `CC[C@](C)(NC(=O)Nc1cncnc1OC)c1nc(C)cs1`?
% Inhibition: 36%; Z score: -5.14

Which results are given for `COc1ccc(C2N(c3ccccc3)OC3C(=O)N(c4ccc(OC)cc4)C(=O)C32c2ccccc2)cc1` (stereo unspecified)?
% Inhibition: -5%; Z score: 0.49

For `CCc1nccn1CCC(=O)N[C@@H](C)Cc1cnccn1`, which “% Inhibition” value is on record?
The value was -6%.

What about the Z score of the same compound?
Its Z score is 0.99.

What does the source list for `Cc1cc(CC(=O)N2CCCS(=O)(=O)C[C@H]2c2ccccc2)on1`?
% Inhibition: -6%; Z score: 0.77

For `CCc1ccc(Cn2nc(CC(N)=O)nc2CCc2scnc2C)cc1`, which “% Inhibition” value is on record?
Its value is 4%.

And the Z score?
Its Z score is -0.8.

`COc1cc(OC)cc([C@H]2CCN(C(=O)c3ccc(=O)n(C)n3)C2)c1` was tested. Which “% Inhibition” value did it give?
The value was -5%.

What about the Z score of the same compound?
The Z score was 0.65.

How did the “% Inhibition” value turn out when `CCc1nn(C)c(Cl)c1CN1CCC2(CC1)c1nc[nH]c1CCN2C` was run?
Its value is -18%.

And the Z score?
The Z score was 1.95.

Which “% Inhibition” value does the source give for `Cc1nc(C(=O)N2CC3CCCCC3C2)cs1` (stereo unspecified) here?
The value was -14%.

What about the Z score of the same compound?
The Z score was 1.94.

With `CNC/C=C/COc1ccccc1C(C)C` as the compound, how does the “% Inhibition” value read?
The value was -2%.

And the Z score?
The Z score was 0.24.

Which “% Inhibition” value does the source give for `CCCOCC(=O)Nc1cc(-c2cccnc2)n[nH]1` here?
The value was 2%.

And the Z score?
The Z score was -0.29.

`C[C@]1(C(=O)Nc2ccc(S(=O)(=O)Nc3nccs3)cc2)CC1(Cl)Cl` was tested. Which “% Inhibition” value did it give?
The value was -12%.

What about the Z score of the same compound?
Its Z score is 1.71.

How did the “% Inhibition” value turn out when `Cc1cc(C(=O)N2C[C@@H]3C[C@H](N(C)C)CN3C(=O)[C@@H]2CC(C)C)no1` was run?
Its value is -11%.

And the Z score?
Its Z score is 1.35.

For `Fc1cnc(N2CCCN(c3nnc(C(F)(F)F)s3)CC2)nc1`, which “% Inhibition” value is on record?
The value was -12%.

What about the Z score of the same compound?
Its Z score is 1.2.

Which results are given for `COc1ccc(CNC(=O)c2ccc(OC)nn2)cc1`?
% Inhibition: -9%; Z score: 1.52

How did the “% Inhibition” value turn out when `COc1cc(-c2ccno2)ccc1S(=O)(=O)N1CCN(c2cccc(C)c2)[C@@H](C)C1` was run?
The value was 1%.

What about the Z score of the same compound?
The Z score was -0.2.

For `Cc1ccccc1CCCN(C)C1CCS(=O)(=O)CC1`, which “% Inhibition” value is on record?
Its value is 12%.

What about the Z score of the same compound?
The Z score was -1.26.

Which “% Inhibition” value does the source give for `CN(C)c1cncc(-c2cc(Cl)cc3c2O[C@@H](CN)C3)n1` here?
The value was -14%.

What about the Z score of the same compound?
Its Z score is 2.22.

Which results are given for `O=C(CCc1ccc(S(=O)(=O)N2CCCC2)cc1)Nc1ccc2c(c1)OCCO2`?
% Inhibition: -12%; Z score: 1.58

What does the source list for `O=C(Nc1cnccn1)c1ccc(Cl)cn1`?
% Inhibition: -8%; Z score: 0.78

For `COC(=O)c1cc(C(=O)Nc2cccc(N3CCCC3=O)c2)ccn1`, which “% Inhibition” value is on record?
The value was -11%.

And the Z score?
The Z score was 1.61.

With `CC(=O)Nc1ccc(N2C[C@@H](C(=O)Nc3ccncc3)CC2=O)cc1` as the compound, how does the “% Inhibition” value read?
Its value is -15%.

What about the Z score of the same compound?
Its Z score is 2.14.

How did the “% Inhibition” value turn out when `COC[C@H]1NC(=O)CC[C@H]1C(=O)Nc1cc(OC)ccc1OC` was run?
Its value is -18%.

What about the Z score of the same compound?
The Z score was 2.15.

What does the source list for `Cc1cc(C)n(CC[C@H]2CC(=O)Nc3c2c(-c2cccnc2)nn3C)n1`?
% Inhibition: -18%; Z score: 1.7

Which “% Inhibition” value does the source give for `C[C@H](NC(=O)NCC(=O)NC(C)(C)C)c1ccc(F)cc1Cl` here?
Its value is -16%.

And the Z score?
The Z score was 1.72.

With `CCOC(=O)NCCC(=O)N(C)Cc1ccco1` as the compound, how does the “% Inhibition” value read?
The value was -5%.

And the Z score?
The Z score was 0.52.

What does the source list for `CCOC1CCN(C(=O)c2csc3ccccc23)CC1C` (stereo unspecified)?
% Inhibition: -12%; Z score: 1.44

For `COC(=O)c1nnc2ccc(C)cc2c1O`, which “% Inhibition” value is on record?
The value was -4%.

What about the Z score of the same compound?
The Z score was 0.73.

For `CCCOc1ccc(-c2ccc(C(=O)N3CCOC(C)(C)C3)cc2)cc1CO`, which “% Inhibition” value is on record?
Its value is -6%.

What about the Z score of the same compound?
Its Z score is 0.93.
